“And” between values parts separate entries of the source, which are not always exact repeats. Equal values may be shown once. The inconclusive results got no clear call from the source; some entries with a clear call stand among them for comparison. For part of these data: Where the call is inconclusive, the potency comes from a doubtful curve fit. The source made the active and inactive calls.
Each compound was assayed against Estrogen receptor beta (Homo sapiens) (UniProt Q92731) (assay: qHTS assay to identify small molecule agonists of the estrogen receptor beta (ER-beta) signaling pathway (AID 1259377; active = well fitted activation curve with a large enough effect in the signal ratio in the repeat runs, not every such curve was filed as active; inconclusive = weak or mixed curves, or effect the other way; the % refers to the signal ratio)). Settings: ER-beta-UAS-bla HEK293T, beta-lactamase FRET ratio, 16 h; activation: at 92.4 µM (top of the series; calls come from the whole dose curve) unless noted.
Summary of the method: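 In HEK293T cells bearing a UAS-beta-lactamase reporter under ER-beta control, DMSO-delivered compounds were incubated for 16 hr at 37C. Activity was detected as fluorescence 2 hours after LiveBLAzer B/G FRET substrate addition.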
% is set by controls: 0 for no effect and ±100 for the full control effect; potency is the fitted concentration of half-maximal effect; tags give direction and shape of the fitted curve or compound fluorescence and quenching.

Chain of UniProt Q92731 (Q92731 whole entry, looked up): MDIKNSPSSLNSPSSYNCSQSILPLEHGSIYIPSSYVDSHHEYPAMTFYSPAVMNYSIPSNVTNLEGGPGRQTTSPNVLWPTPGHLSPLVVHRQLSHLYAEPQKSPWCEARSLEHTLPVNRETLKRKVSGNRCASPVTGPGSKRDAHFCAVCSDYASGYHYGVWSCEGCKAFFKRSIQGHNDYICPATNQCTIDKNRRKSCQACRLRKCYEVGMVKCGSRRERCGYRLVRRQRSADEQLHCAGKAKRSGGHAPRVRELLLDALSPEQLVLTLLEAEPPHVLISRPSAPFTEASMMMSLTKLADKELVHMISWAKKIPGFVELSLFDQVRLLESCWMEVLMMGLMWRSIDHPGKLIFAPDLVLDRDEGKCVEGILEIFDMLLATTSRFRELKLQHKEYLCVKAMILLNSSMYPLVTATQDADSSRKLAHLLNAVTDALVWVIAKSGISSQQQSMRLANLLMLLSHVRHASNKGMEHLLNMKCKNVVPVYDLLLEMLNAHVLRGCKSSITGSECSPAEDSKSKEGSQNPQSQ

SMILES | activation | Potency
CCO/C=C1\N=C(c2ccccc2)OC1=O | inactive: -1.34% | –
Oc1cccc(O)c1 | – | inconclusive: 5.93 µM [fluorescent, full curve] and inconclusive: 11.9 µM [fluorescent]
C=CCc1ccc(OC)c(OC)c1 | – | inconclusive: 24.6 µM [activator]
S=c1nccc[nH]1 | inactive: 9.3% | –
CCOC(=O)c1nc(C(Cl)(Cl)Cl)n(-c2ccc(Cl)cc2Cl)n1 | – | inconclusive: 13.7 µM [rising, full curve]
CC(C)OB(OC(C)C)OC(C)C | – | inactive
CCCCC(CC)COCC1CO1 (configuration not stated) | – | inactive
CCn1c2ccccc2c2cc([N+](=O)[O-])ccc21 | inconclusive: 12.4% | –

What follows are compounds tested against Estrogen receptor beta (Homo sapiens) (UniProt Q92731) (assay: qHTS assay to identify small molecule antagonists of the estrogen receptor beta (ER-beta) signaling pathway (AID 1259378; active = well fitted inhibition curve with a large enough effect in the signal ratio in the repeat runs, not every such curve was filed as active; inconclusive = weak or mixed curves, or effect the other way; inactive = no such curve, though single readings can be large or run the other way; the % refers to the signal ratio)). Settings: ER-beta-UAS-bla HEK293T, beta-lactamase FRET ratio, 16 h; activity, negative = inhibition: at 92.4 µM (top of the series) unless noted.
Summary of the method: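 ER-beta-UAS-bla HEK293T cells in 2% charcoal-stripped FBS medium treated with compound plus 1nM final 17-beta-estradiol for 16 hr at 37C. Beta-lactamase reporter read by FRET substrate fluorescence after 2 hours at room temperature.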

SMILES | activity, negative = inhibition | Potency
CCO/C=C1\N=C(c2ccccc2)OC1=O | inactive: -0.0773% | –
Oc1cccc(O)c1 | inconclusive: -2.33% | –
S=c1nccc[nH]1 | inconclusive: -39.9% | –
CCOC(=O)c1nc(C(Cl)(Cl)Cl)n(-c2ccc(Cl)cc2Cl)n1 | – | active: 54.5 µM
